GI50 and TGI data for 1 molecule are collected here from PubChem BioAssay (NCI).

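48-hour exposure; five concentrations; linearly interpolated endpoints. The concentration for 50% growth inhibition is given as GI50. At the TGI there is no net growth.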

In the assay the test system is NCI-H322M lung. Kind of assay: NCI tumour cell line growth inhibition, 48 h.

In the case of `COc1cc(CNC(=O)/C=C/c2ccc3c(c2)OCO3)ccc1OCc1cn(-c2cccc(C(F)(F)F)c2)nn1`, the GI50 is 9.69 µM and the TGI amounted to 26.8 µM.
